The whole screen tested about 310,000 compounds, of which about 2,200 (0.71%) showed an effect of 50% or more. The effect is printed as a negative number. The list shows a part of the results.
target: human ether-à-go-go-related gene (hERG) potassium channel (human, UniProt Q12809); test: primary screen, population patch clamp on CHO cells stably expressing hERG
Sequence (Q12809 whole entry, looked up): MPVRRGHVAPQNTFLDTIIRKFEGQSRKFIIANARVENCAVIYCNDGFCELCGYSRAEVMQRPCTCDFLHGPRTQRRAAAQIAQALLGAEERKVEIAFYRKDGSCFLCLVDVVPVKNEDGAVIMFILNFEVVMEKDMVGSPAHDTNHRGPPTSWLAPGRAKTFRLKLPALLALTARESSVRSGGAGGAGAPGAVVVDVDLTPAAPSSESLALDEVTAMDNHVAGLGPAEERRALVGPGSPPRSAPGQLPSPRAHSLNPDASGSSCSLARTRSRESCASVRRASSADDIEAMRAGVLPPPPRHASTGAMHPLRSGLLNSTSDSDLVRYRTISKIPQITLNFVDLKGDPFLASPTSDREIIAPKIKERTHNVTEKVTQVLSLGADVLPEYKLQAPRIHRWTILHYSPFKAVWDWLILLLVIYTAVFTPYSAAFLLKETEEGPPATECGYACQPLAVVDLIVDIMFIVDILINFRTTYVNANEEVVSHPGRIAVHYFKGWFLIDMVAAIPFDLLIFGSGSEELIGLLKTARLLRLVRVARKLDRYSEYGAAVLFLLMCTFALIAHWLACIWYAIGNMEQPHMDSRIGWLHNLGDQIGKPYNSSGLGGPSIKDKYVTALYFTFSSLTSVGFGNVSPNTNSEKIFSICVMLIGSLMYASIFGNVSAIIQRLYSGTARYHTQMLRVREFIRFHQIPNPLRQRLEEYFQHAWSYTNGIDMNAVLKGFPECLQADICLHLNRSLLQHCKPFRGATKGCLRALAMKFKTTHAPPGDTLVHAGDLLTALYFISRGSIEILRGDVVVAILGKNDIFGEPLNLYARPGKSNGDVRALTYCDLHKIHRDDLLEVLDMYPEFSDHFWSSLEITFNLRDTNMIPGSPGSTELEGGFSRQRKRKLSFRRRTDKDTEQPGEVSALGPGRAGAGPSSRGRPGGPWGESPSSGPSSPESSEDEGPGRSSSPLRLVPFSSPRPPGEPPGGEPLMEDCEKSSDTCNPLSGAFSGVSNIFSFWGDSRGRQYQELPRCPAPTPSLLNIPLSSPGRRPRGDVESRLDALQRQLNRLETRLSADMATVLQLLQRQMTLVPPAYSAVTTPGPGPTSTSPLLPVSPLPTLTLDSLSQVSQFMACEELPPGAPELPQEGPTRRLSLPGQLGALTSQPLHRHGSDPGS

Structure (SMILES)	hERG current change (%, negative = inhibition) at 1uM [%]
COc1ccc(C(C2C(=O)CC(C)(C)CC2=O)C2C(=O)CC(C)(C)CC2=O)cc1	4.1
CC(NC(=O)COC(=O)C1CCN(c2ccc(C(F)(F)F)cn2)CC1)c1ccc(Br)cc1 (stereo not shown)	1.22
COC(CNC(=O)c1ccc2nc(-c3ccccc3)c(-c3ccccc3)nc2c1)OC	11.5
CCCCc1cc(O)c(CCCC)c(O)c1	-9.37
COc1ccc(NCc2cccnc2)cc1	18.1
CCc1cc(=O)oc2c3c(cc(OCC(=O)NCCN4CCOCC4)c12)OC(C)(C)CC3	-10.6
CC(CCc1ccccc1)NC(=O)COC(=O)C(CCC(N)=O)NC(=O)c1ccc(F)cc1 (stereo not shown)	6.67
CCOC(=O)C1(CC2CCCCO2)CCN(S(=O)(=O)c2c(C)nn(C)c2C)CC1 (stereo not shown)	15.5
CCOc1ccccc1CNCCNC(=O)c1nonc1N.Cl	10.9
Cc1c(NC(=O)CSc2ccccc2Cl)c(=O)n(-c2ccccc2)n1C	8.98
CCN(Cc1ccccc1)C(c1ccc(C(F)(F)F)cc1)c1nnnn1C(C)(C)C (stereo not shown)	1.75
COc1cccc(CNC(=O)CC(NC(C)=O)c2ccccc2)c1 (stereo not shown)	2.13
COCCn1nnnc1SCC(=O)Nc1ccc2c(c1)OCO2	-1.39
COc1ccc(CNC(=O)C(C)Sc2ccc(C)cc2)cc1 (stereo not shown)	10.2
CN(C(=O)Cc1c(C(=O)O)n(C)c2ccccc12)c1cccc(C(F)(F)F)c1	16
CCOC(=O)c1ccc(N2C(=O)C3CCCN3C2=S)cc1 (stereo not shown)	6.14
CCN(CC(=O)Nc1ccccc1OC)CC(=O)Nc1c(Cl)ccc(C)c1Cl	10.3
Cc1c(C)n2c(SCC(=O)N3CCOCC3)nnc2[nH]c1=O	-3.22
COc1ccc(C(=O)NCCCN2CCOCC2)cc1OC	5.13
CCCC(=O)Nc1ccc(C2C(=O)c3ccccc3C2=O)cc1	19.2
O=C(Nc1ccc(F)cc1)Nc1ccccc1N1CCCCC1	11.4
CN(C1CCCCC1)C(CNS(=O)(=O)c1ccccc1)c1ccccc1 (stereo not shown)	12.3
O=C(c1ccc(Br)o1)N1CCN=C1SCc1cccnc1	3.64
COc1ccc(C(CNC(=O)c2ccc(S(=O)(=O)N3CCCC3)cc2)N(C)C)cc1OC (stereo not shown)	11.9
COc1ccc(/C=C/C(=O)NC(=S)Nc2ccc(N3CCN(C(C)=O)CC3)cc2)cc1	8.88

Reference: article PMC4336329 (PLoS ONE, 2015)
